The whole screen tested about 110,000 compounds, of which about 230 (0.21%) showed an effect of 50% or more. The list shows a part of the results. Where a SMILES comes first, the peptide text is derived from it.

These results are taken from PMC6919601, “Identification of Plasmodium dipeptidyl aminopeptidase allosteric inhibitors by high throughput screening” (PLoS ONE, 2019).
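Further: 30 min substrate incubation versus DMSO and 10 µM JCP410 controls.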

Chain of DPAP1 (Q8IIJ9 whole entry, looked up): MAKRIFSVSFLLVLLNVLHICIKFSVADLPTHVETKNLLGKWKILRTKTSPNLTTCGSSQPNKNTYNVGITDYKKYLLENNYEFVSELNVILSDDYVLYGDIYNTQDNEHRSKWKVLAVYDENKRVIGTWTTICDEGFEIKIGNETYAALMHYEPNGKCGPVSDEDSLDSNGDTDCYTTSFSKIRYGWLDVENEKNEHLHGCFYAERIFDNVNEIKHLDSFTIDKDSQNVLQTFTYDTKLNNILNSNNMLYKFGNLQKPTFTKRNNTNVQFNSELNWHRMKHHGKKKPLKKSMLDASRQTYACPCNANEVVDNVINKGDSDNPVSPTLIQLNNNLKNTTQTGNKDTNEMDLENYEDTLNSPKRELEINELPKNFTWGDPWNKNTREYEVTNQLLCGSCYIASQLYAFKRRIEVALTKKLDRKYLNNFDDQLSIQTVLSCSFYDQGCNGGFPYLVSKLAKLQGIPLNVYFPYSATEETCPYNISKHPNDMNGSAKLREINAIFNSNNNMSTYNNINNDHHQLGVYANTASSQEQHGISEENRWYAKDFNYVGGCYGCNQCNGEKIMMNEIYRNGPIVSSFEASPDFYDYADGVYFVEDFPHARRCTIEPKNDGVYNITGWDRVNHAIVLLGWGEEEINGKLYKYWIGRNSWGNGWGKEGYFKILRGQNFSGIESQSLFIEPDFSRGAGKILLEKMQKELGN

This assay addresses DPAP1 (Plasmodium falciparum, UniProt Q8IIJ9). In words: primary screen, percent inhibition; read by cleavage of a fluorogenic dipeptide substrate; higher = more effect of the substance. More on the design: species or system P. falciparum D10 trophozoite lysates; single well.
`O=C(O)C12CC3CC(C1)CC(n1ncc(NCCC4=CCCCC4)c(Cl)c1=O)(C3)C2`: the “% Inhibition @ 10 uM” value is -4.66%. As for `COc1ccccc1NC(=O)COc1cc(Cl)c(Cl)cc1Cl`, the “% Inhibition @ 10 uM” value came out at 3.58%. Under `N/C(=N\N=C\c1ccco1)c1nonc1N` stands 3.54%; under `O=C(Nc1ccc(Cl)cc1)C1CC(=O)N(c2ccc(Cl)cc2)C1` (centres unmarked), -0.28%. For `NS(=O)(=O)c1cc(O)c2ccccc2c1`, the “% Inhibition @ 10 uM” value is 3.06%. With `CCOCCCNCc1cc(OC)ccc1OC` the figure was 0.387%.

Consider `COc1ccc(OC)c(C2CC(=O)N=C(NC(=O)c3ccc(C)cc3)N2)c1` (centres unmarked), for which the “% Inhibition @ 10 uM” value is 0.331%. As for `COc1cccc(/C=c2\sc3nc(=O)c(-c4ccccc4)nn3c2=O)c1OC`, the “% Inhibition @ 10 uM” value is -5.2%. With `COCCNC(=O)c1cnn(-c2ccccc2)c1-n1cccc1` the figure was -5.19%. With `Oc1ccc(CN2CCN(c3ccccc3F)CC2)cc1` the figure was -2.7%; with `CSc1sc(C(C)=O)c(N)c1S(=O)(=O)c1ccccc1`, 4.28%; with `CCN1CCCC(NC(=O)c2scc3c2CCCC3)C1` (centres unmarked), -1.57%. With `c1ccc(C2=NN3C(C2)c2ccccc2OC3c2ccc3c(c2)OCO3)cc1` (centres unmarked) the figure was -3.41%; with `CCOC(=O)c1[nH]c(C)c(C(=O)NCCC2=CCCCC2)c1C`, -1.66%; with `COc1ccc(NC(=O)c2ccoc2C)cc1OC`, -4.71%. As for `CN1CCN(C2CC(=O)N(c3ccccc3)C2=O)CC1` (centres unmarked), the “% Inhibition @ 10 uM” value stood at 2.54%. Take `Cc1ccsc1CN(Cc1ccco1)C(=O)c1ccc(Br)cc1`: the “% Inhibition @ 10 uM” value is -4.67%. With `COc1cc(CCC(=O)NCc2ccc3c(c2)OCO3)cc(OC)c1OC` the figure was -6.91%; with `O=C(CN1C(=O)c2cccc3cccc1c23)NCCSC1CCCCC1`, -4.16%; with `Cc1ccc(CNC(=O)c2nn(C)c3c2CSc2ccccc2-3)cc1`, 51.6%. With `COc1cccc2c1cc1c(=O)n(CC(=O)N3CCC(N4CCCCC4)CC3)nc(C)n12` the figure was 1.68%; with `N#Cc1c(S)nc2c(c1-c1ccco1)CCCC2`, 11.3%; with `Cc1ccc(N2C(=O)CC(NCc3ccc(F)cc3)C2=O)cc1` (centres unmarked), 11.9%. With `COc1ccc(C2OC(=O)CC2C(=O)NCc2ccccc2Cl)cc1OC` (centres unmarked) the figure was -2.14%; with `COc1cc2c(cc1OC)C(c1ccc(C(F)(F)F)cc1)CC(=O)N2` (centres unmarked), 3.57%. For `COc1cc(CN2CCN(Cc3ccccn3)CC2)cc(OC)c1OC`, the “% Inhibition @ 10 uM” value is 2.54%. Consider `COCCCN1C(=O)c2ccc(C(=O)O)cc2C1=O`, for which the “% Inhibition @ 10 uM” value is given as -1.03%.

For `O=C(NCc1ccc2c(c1)OCO2)c1cc(O)nc2ccc(S(=O)(=O)N3CCCCCC3)cc12`, the “% Inhibition @ 10 uM” value is 5.7%. Take `COc1cc(C(=O)NCc2ccc(F)cc2)cc(OC)c1OC`: the “% Inhibition @ 10 uM” value was 0.316%. For `COc1ccc(-n2cnc3cc(C(=O)NC4CCCCC4C)ccc32)cc1` (centres unmarked), the “% Inhibition @ 10 uM” value worked out at 2.8%.

As to `N#CCc1ccc(NC(=O)c2cccnc2)cc1`, the “% Inhibition @ 10 uM” value stood at 1.93%. With `COc1ccc(OC)c(NC(=O)CN(c2ccccc2F)S(C)(=O)=O)c1` the figure was -1.43%; with `CCCCNC(=O)CNC(=O)CNS(=O)(=O)c1ccc(C)cc1` (HELM PEPTIDE1{[Cc1ccc(S(=O)(=O)[*:2])cc1].G.G.[CCCCN[*:1]]}$$$$V2.0), 1.76%; with `CCOc1ccc(NC(=O)c2ccco2)cc1`, -3.26%.

As for `CCC1CCC(N(CC)CCN(C)C)CC1` (centres unmarked), the “% Inhibition @ 10 uM” value was -0.0494%. Under `O=C(O)c1cccc(N2C(=O)C(O)=C(c3ccccc3)C2C(=O)c2ccc(Br)cc2)c1` (centres unmarked) stands 1.34%; under `N#CC1=C(N)Oc2c(c(=O)oc3ccccc23)C1c1ccc(C(F)(F)F)cc1` (centres unmarked), 7.55%. For the compound `CCN1CCN(C(=O)C2CCN(c3nc4c(C)cc(C)cc4s3)CC2)CC1`, the “% Inhibition @ 10 uM” value is reported as -5.19%. For `Cc1ccc(NC(=O)CN2C(=O)c3ccccc3C2=O)cc1`, the “% Inhibition @ 10 uM” value turned out to be 9.02%. With `CN(CC(=O)NC1CCCCCC1)S(=O)(=O)c1c[nH]cn1` the figure was 3.24%; with `CCOC(=O)N1CCN(C(=O)Cn2cnc3c(nnn3-c3cccc(OC)c3)c2=O)CC1`, -2.16%.

As to `Cc1ccc(C(C)C)c(OCC(=O)Nc2ccc(F)cc2)c1`, the “% Inhibition @ 10 uM” value is listed as -1.98%. `CCOc1ccc(-n2c(SCC(=O)NCc3ccc(C)cc3)nc3nnc(C)c-3c2N)cc1`: the “% Inhibition @ 10 uM” value is listed as -0.458%. With `CCCOc1ccc(C(=O)O/N=C(\N)c2ccc(Br)cc2)cc1` the figure was 2.5%.

Regarding `CCN(CC)CCNC(=O)/C(=C/c1cn(CC)c2ccccc12)NC(=O)c1ccco1`, the “% Inhibition @ 10 uM” value is reported as -0.0235%. On to `O=C(O)CNS(=O)(=O)c1ccccc1`, for which the “% Inhibition @ 10 uM” value turned out to be 1.66%. With `Clc1ccc(-n2ncc3c(NCCCN4CCOCC4)ncnc32)cc1` the figure was -2.84%. For the compound `CCCOc1ccc(C2C3=C(CCCC3=O)OC3=C2C(=O)CCC3)cc1OCC`, the “% Inhibition @ 10 uM” value is -3.41%. With `O=S(=O)(c1ccccc1)N1CCN(C/C=C/c2ccccc2)CC1` the figure was -1.07%. As for `CCOC(=O)/C(C#N)=C\c1ccc(Cl)cc1Cl`, the “% Inhibition @ 10 uM” value is reported as -2.87%. In the case of `COC(=O)c1ccc(CSc2nc3ccncc3n2CC(=O)N2CCCC2)cc1`, the “% Inhibition @ 10 uM” value was 4.83%. `Cc1ccccc1-c1nc(NC(=O)CSc2ncnc3sc(C)c(C)c23)ns1`: the “% Inhibition @ 10 uM” value is recorded as -1.33%. With `CCCCCc1ccc(-c2ccc(-c3noc(CC)n3)cc2)cc1` the figure was 2.54%; with `COc1cc2c(cc1OC)CN(S(=O)(=O)c1ccc(-n3cnnn3)cc1)CC2`, -1.07%; with `CC1=CC2=NC(=O)/C(=C\c3ccc(OCc4ccccc4Cl)cc3)C(=N)N2O1`, 0.317%. Consider `O=C(NC(NC(=O)c1ccccc1)c1ccc([N+](=O)[O-])cc1)c1ccccc1`, for which the “% Inhibition @ 10 uM” value is reported as -3.92%. With `CCCCNC(=O)Cn1ccc2cc(S(=O)(=O)N3CCC(C)CC3)ccc21` the figure was -6.22%; with `Oc1oc(-c2ccc(Cl)cc2)nc1/C=N/c1ccc(Cl)cn1`, 1.25%; with `COc1ccc(-n2c(C)c(C(C)=O)c3cc(OC)ccc32)cc1`, -0.0938%.

On to `COc1ccccc1-c1c(C)nn2c(SCC(=O)N3CCCC3)cc(C)nc12`, for which the “% Inhibition @ 10 uM” value is -1.7%.

As to `COc1cccc(OCC(O)CN2CCC(C)CC2)c1` (centres unmarked), the “% Inhibition @ 10 uM” value is recorded as -3.34%. With `COCCCNC(=O)c1cc2c(C)nn(-c3ccccc3)c2s1` the figure was -1.33%; with `COc1ccccc1/C=C/C=c1\sc2nc(-c3ccc(OC)c(OC)c3)nn2c1=O`, 2.04%.

As for `CC1(C)CC(NC(=O)COc2ccc(Cl)cc2Br)CC(C)(C)N1`, the “% Inhibition @ 10 uM” value is -3.06%. With `CCC1CCC(c2ccc(C(=O)CCN(C)C)cc2)CC1` (centres unmarked) the figure was 4.52%. Consider `CC1(C)CC(CCOC(=O)c2cccnc2)CC(C)(C)N1`, for which the “% Inhibition @ 10 uM” value is reported as -0.403%.

In the case of `COc1cccc2cc(NC(=O)c3ccc(C)c(C)c3)c(=O)oc12`, the “% Inhibition @ 10 uM” value is 2.7%. Under `Cn1cc(C2N3CC4(C)CN2CC(C)(C3)C4=O)c2ccccc21` (centres unmarked) stands 1.26%. Consider `CC1=CC=CN2C(=O)NC(C(F)(F)F)(C(F)(F)F)N=C12`, for which the “% Inhibition @ 10 uM” value turned out to be 3.36%. With `O=C(O)/C=C/C(=O)Nc1cccc(NC(=O)/C=C/C(=O)O)c1`, the “% Inhibition @ 10 uM” value is 0.505%. Under `CCN(CC)C(=O)Cn1c(=O)n(CCC(=O)NCc2ccc(OC)cc2)c(=O)c2sccc21` stands -1.21%; under `COc1cc2c(cc1OC)CN(CC1=CC[C@H]3C[C@@H]1C3(C)C)CC2`, -0.603%. On to `COc1cccc(C2NC(=O)c3sc(=S)n(-c4ccccc4)c3N2)c1` (centres unmarked), for which the “% Inhibition @ 10 uM” value is -2.2%. Under `CCSc1ncc(Cl)c(C(=O)Nc2nnc(SCc3ccc(F)cc3)s2)n1` stands -2.85%. On to `CC1=C(C(=O)Nc2ccccn2)C(c2cccc(Oc3ccccc3)c2)C2=C(O)CC(C)(C)CC2=N1` (centres unmarked), for which the “% Inhibition @ 10 uM” value is given as -3.9%. Under `Cc1cc(C)n(CNc2nonc2C(=N)NOCc2c(F)cccc2Cl)n1` stands -3.04%; under `O=C1CCCc2occ(-c3cccc([N+](=O)[O-])c3)c21`, -4.21%; under `Cc1ccc(C23CC4CC(CC(C(=O)CN5C(=O)c6ccccc6C5=O)(C4)C2)C3)cc1`, -0.615%. With `Cc1cc(C(=O)C2=C(O)C(=O)N(Cc3cccnc3)C2c2ccccc2)ccc1OCC(C)C` (centres unmarked), the “% Inhibition @ 10 uM” value is 1.93%. Turning to `COc1cc(-c2cc(NC(=O)c3cc4ccc5cccnc5c4[nH]3)on2)cc(OC)c1OC`, the “% Inhibition @ 10 uM” value is given as 2.09%. Take `CC1=C(C(=O)Nc2ccc(Cl)cc2)C(c2cccc(F)c2)n2ncnc2N1` (centres unmarked): the “% Inhibition @ 10 uM” value is recorded as -1.22%.

Regarding `O=C(O/N=C1/CCSc2ccccc21)c1ccc(Cl)c(Cl)c1`, the “% Inhibition @ 10 uM” value is on record as -1.93%. Under `CCCC(=O)Nc1ccc(S(=O)(=O)NC(C)(C)C)cc1` stands -2.28%.

On to `COc1ccc(/C=C2\CCC(C3CCCC3)C2=O)c(OC)c1` (centres unmarked), for which the “% Inhibition @ 10 uM” value was 8.9%. With `COC(=O)c1cc(-c2ccc(N)cc2)nc2ccccc12` the figure was -0.833%.

`CC(C)(C)c1nnc(NCc2ccccc2)nc1O`: the “% Inhibition @ 10 uM” value is -4.67%.

As to `COc1ccc(C)cc1N(CC(=O)NC1CCCC1)S(=O)(=O)c1ccccc1`, the “% Inhibition @ 10 uM” value was -0.46%. For `C=C(C)Cn1c(CCCNC(=O)Cc2ccccc2)nc2ccccc21`, the “% Inhibition @ 10 uM” value is on record as 2.17%. Under `Cc1oc(-c2ccccc2F)nc1CS(=O)(=O)CC(=O)N1CCC(Cc2ccccc2)CC1` stands 1.55%. Under `Cc1ccc(N2C(=O)CC(NCCc3ccc(Cl)cc3)C2=O)cc1` (centres unmarked) stands 1.95%; under `O=c1onc(-c2cccs2)n1Cc1cccc(F)c1`, 5.88%.

On to `CC1CCN(S(=O)(=O)c2ccc(NC(=O)c3ccc(-c4ccccc4)cc3)cc2)CC1`, for which the “% Inhibition @ 10 uM” value came out at 2.13%. Under `CCOc1ccc(C(=O)Nc2c3c(nn2-c2ccc(C)cc2C)CS(=O)(=O)C3)cc1OCC` stands 5.35%; under `CCOc1cc(C2c3sc(O)nc3SC3C4CCC(C4)C23)ccc1O` (centres unmarked), 16.8%; under `Cc1ccc(N2C(=O)C(Cl)=C(N3CCOCC3)C2=O)cc1Cl`, -1.64%. As for `CCCCC(CC)C(C#N)NC(=O)[C@H](CC(C)C)NC(=O)OCc1ccccc1` (some centres unmarked), the “% Inhibition @ 10 uM” value is listed as -3.04%.

With `CN1CCN(C(=O)c2cc3nc(-c4ccc(Br)cc4)cc(C(F)(F)F)n3n2)CC1`, the “% Inhibition @ 10 uM” value is given as -4.82%.

Take `CCOC(=O)C1=C(C)NC(=O)NC1c1cccc(OC)c1O` (centres unmarked): the “% Inhibition @ 10 uM” value amounted to 4.52%.
